Measured values reported in publication PMC4336329 (PLoS ONE, 2015).
The campaign covered roughly 310,000 compounds. About 14,000 (4.5%) showed an effect of 50% or more. The effect is printed as a negative number. The list shows a part of the results.

Molecular target: human ether-à-go-go-related gene (hERG) potassium channel (human, UniProt Q12809)
Experiment: primary screen, population patch clamp on CHO cells stably expressing hERG
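Note: peak tail current of the secondary pulse compared with the same well before compound.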

Chain of human ether-à-go-go-related gene (hERG) potassium channel (Q12809 whole entry, looked up): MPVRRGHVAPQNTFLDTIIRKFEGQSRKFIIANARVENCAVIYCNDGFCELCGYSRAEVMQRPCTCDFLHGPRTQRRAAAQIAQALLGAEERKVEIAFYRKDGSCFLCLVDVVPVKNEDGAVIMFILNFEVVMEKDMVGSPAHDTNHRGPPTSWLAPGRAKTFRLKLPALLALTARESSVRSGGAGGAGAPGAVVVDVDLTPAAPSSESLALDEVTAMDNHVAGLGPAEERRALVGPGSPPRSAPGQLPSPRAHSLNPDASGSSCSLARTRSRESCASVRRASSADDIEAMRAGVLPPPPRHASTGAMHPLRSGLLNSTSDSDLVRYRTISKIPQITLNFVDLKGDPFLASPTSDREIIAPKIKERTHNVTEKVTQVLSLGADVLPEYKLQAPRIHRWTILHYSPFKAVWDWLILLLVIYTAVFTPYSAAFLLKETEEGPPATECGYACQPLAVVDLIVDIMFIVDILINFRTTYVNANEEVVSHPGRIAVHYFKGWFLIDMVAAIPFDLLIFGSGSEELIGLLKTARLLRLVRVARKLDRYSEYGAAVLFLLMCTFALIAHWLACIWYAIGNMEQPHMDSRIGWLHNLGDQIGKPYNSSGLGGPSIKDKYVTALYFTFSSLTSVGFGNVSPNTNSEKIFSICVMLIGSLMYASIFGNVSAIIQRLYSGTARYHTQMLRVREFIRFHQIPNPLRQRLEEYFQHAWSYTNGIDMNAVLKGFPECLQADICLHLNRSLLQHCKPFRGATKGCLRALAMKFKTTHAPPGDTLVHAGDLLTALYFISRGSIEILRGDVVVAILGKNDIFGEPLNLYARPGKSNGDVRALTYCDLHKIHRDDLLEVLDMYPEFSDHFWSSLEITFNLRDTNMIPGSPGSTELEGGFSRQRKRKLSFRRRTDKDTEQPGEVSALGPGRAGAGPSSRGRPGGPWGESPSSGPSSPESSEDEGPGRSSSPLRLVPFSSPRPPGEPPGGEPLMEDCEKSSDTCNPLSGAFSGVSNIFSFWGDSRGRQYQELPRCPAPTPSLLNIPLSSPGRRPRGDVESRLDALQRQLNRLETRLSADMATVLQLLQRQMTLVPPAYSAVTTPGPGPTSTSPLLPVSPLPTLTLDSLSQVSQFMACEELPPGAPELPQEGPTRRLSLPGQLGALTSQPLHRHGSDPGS

Structure (SMILES) | hERG current change (%, negative = inhibition) at 10uM [%]
CCOCCCN1C(=O)CN(C2CCCCC2)C(=O)C1c1ccc(OCC)c(OC)c1 (stereo not drawn) | 3.29
Cc1ccc(O)c(/C=N/NC(=O)COc2ccc3c(C)cc(=O)oc3c2)c1 | 2.09
O=[N+]([O-])c1ccccc1/C=N/n1c(-c2cccnc2)n[nH]c1=S | 15.9
CNC(=O)NC(=O)CSc1ccc(S(=O)(=O)N2CCOCC2)cn1 | 2.81
Cc1ccc(CNS(=O)(=O)/C=C/c2ccc3c(c2)OCO3)cc1 | -14.1
Cc1cc(Nc2ccccc2F)n2ncnc2n1 | 0.765
COCCCNC(=S)NNC(=S)Nc1ccccc1 | 26.2
O=C(COc1ccc(/C=N/NS(=O)(=O)c2ccccc2)cc1)Nc1cccc(Cl)c1 | -3.5
COC(=O)CN1C(CN2CCOCC2)=Nc2ccc(Br)cc2C1c1ccccc1 (stereo not drawn) | -75.3
Cc1nn(-c2ccccc2)c(Cl)c1/C=N/NC(=O)c1ccc(CNc2ccccc2)o1 | 0.462
Cc1ccc(C)c(SCC(=O)Nc2oc(C)c3c(C)n[nH]c(=O)c23)c1 | -52.4
COc1ccccc1-n1c(O)c(C=NCc2ccc3c(c2)OCO3)c(=O)[nH]c1=O | 9.11
O=C(NCCS(=O)(=O)N1CCC2(CC1)OCCO2)c1ccc(F)cc1 | 8.92
CC(=O)Cc1nsc(Nc2ccc(C)cc2)n1 | 21
Cc1cc(C)c(S(=O)(=O)c2cccc(C)c2C)c(=O)[nH]1 | 10
Cc1cc2ccccn2c1C(=O)c1nc(NCc2ccccc2)ncc1Cl | 11.8
CCOc1ccccc1Nc1nc(-c2cccnc2)cs1 | 1.95
COc1ccc(N2CCN(C(=O)CSc3nc4[nH]ncc4c(=O)n3-c3ccc(Br)cc3)CC2)cc1 | -12.9
CCn1nnc(NC(=O)c2sc3ccccc3c2Cl)n1 | -7.46

Structure (SMILES) | hERG current change (%, negative = inhibition) at 10uM [%]
CC/C(=N/Nc1ccc(Cl)cc1)c1cnnc(SC)n1 | 8.85
O=C(NCc1ccc(F)cc1)C1CCCN1C(=O)Nc1ccccc1 (stereo not drawn) | -2.89
Cc1nc2nc(NCc3cccs3)nn2c(C)c1Cl | -12.9
CN1CCN(S(=O)(=O)c2ccc3c(c2)oc(=O)n3C)CC1 | 13.4
O=C(CN1CCC(NC(=O)c2ccco2)CC1)Nc1ccccc1C(F)(F)F | -23.8
Cc1ccc(/C=N/N2CCN(Cc3cccc4ccccc34)CC2)s1 | -3.05
COc1cccc(CNc2cc(CSc3ccc(Cl)cc3)nc(C)n2)c1 | -7.29
CCc1nnc(NS(=O)(=O)c2ccc(NC(=O)Nc3ccc(OC)cc3)cc2)s1 | 26.3
Cl.FC(F)(F)c1ccccc1/C=N/N1CCN(Cc2ccccc2)CC1 | -2.71
CCC(=O)N1CCN=C1SCc1cc(C)ccc1C | -2.85
CN(C(=O)Cn1nc(Cl)ccc1=O)C1CCCN(Cc2ccccc2F)C1 (stereo not drawn) | 19.3
COc1ccccc1C(=O)Nc1nnn(C)n1 | 11.3
O=C(O)c1cc(C(F)(F)F)nc2c(C(F)(F)F)cccc12 | 19.5
Cc1occc1C(=O)Nc1nnc(-c2cccs2)s1 | 11.2
CCOP(=O)(OCC)C(NC(=O)Nc1ccc(Cl)cc1)C(=O)N(CC)CC (stereo not drawn) | -13.4
C=CCN1N=C(/C=C/c2ccc(OC)cc2)CCC1=O | 6.48
Cc1[nH]c2ccccc2c1C(=O)COC(=O)Cn1c(C(F)(F)F)nc2ccccc21 | 5.54
C/C(CC(=O)NC1CCCC1)=N\NC(=O)Cc1csc(N)n1 | 15.5
O=C(CSCc1ccccc1Cl)Nc1ccc2c(c1)OCCO2 | -10.4

Structure (SMILES) | hERG current change (%, negative = inhibition) at 10uM [%]
O=C(O)CCCc1ccc(N(CCCl)CCCl)cc1 | 12.4
COc1cc(OC)cc(C(=O)N[C@H](C(=O)Nc2ccc(F)cc2F)C(C)C)c1 | 18.3
COC(=O)C1=C(C)N(CCc2cc(OC)c(OC)c(OC)c2)C(=O)N[C@H]1c1ccccc1 | 8.82
COc1ccc(C(=O)Nc2nc(N)n(-c3ccccc3)n2)cc1 | -11.4
CCC(=O)c1ccc(OCC(=O)OCC(=O)Nc2ccc(C)c(S(=O)(=O)N3CCCCC3)c2)cc1 | 17.3
Cc1ccc(C)c(N2CCN(C(=O)CCCOc3cc(=O)n(C)c4ccccc34)CC2)c1 | -40.8
Cn1c(Cc2ccccc2)nnc1SCC(=O)Nc1ccc2c(c1)OCO2 | 5.64
CC(C)(C)c1ccc(S(=O)(=O)N2CCSC2)cc1 | 14.7
CC(=O)NCCn1c(SCC#N)nc2ccccc2c1=O | 6.09
CCCSCCCNC(=O)c1ccc(C)c(NC(=O)C2=C(C)OCCS2)c1 | -19.8
CCN(C(=O)c1c(C)cc(=O)oc1C)c1ccc2c(c1)OCO2 | 5.29
O=C(CCc1ccc(S(=O)(=O)NCc2ccccc2)cc1)NCc1ccco1 | -7.81
Cc1ccc(-c2csc(N3CCC(NS(=O)(=O)c4ccc5c(c4)OCCO5)CC3)n2)cc1 | 9.55
CCOCCCNC(=O)N[C@H](C(=O)OC)C(C)CC (stereo partly drawn) | 4.32
O=C(c1ccc([N+](=O)[O-])cc1)n1nc(-c2ccccc2)nc1NCc1ccc(F)cc1 | 11.8
COCCNC(=O)c1ccc(CN2CCC(Cc3ccccc3)CC2)cc1 | -11.6
CCOc1ccc(C(O)Cn2c(=N)n(CCN3CCCCC3)c3ccccc32)cc1.Cl (stereo not drawn) | -77.2
C=C1CC(C)OC(c2ccccc2OCC(O)CN2CCCCC2)C1 (stereo not drawn) | -72.4
Cc1ccc(C(=O)OC(C(=O)O)C(OC(=O)c2ccc(C)cc2)C(=O)O)cc1 (stereo not drawn) | 7.48
